Results: patent US7629130B2 (priority 2005, dated 2009)

Conditions: repeated cycles of freezing/thawing

B1: SdcA: SidC paralogue SdcA (72% identity on an amino acid level), GenBank AY504674 (protein)
chain: VMNMVDKIKFKEPERCEYLHIAKDNKVHILLPIVGGDEIGLDNTCETTGELLTFFYGKTHGGTKYSAEHHLNEYKKNLEDDIKAIGVQRKISPNAYEDLLKEKKERLEQIEKYIDLIKVLKEKFDEQREIDKLRTEGIPQLPSGVKEVIKSSENAFALRLSPDRPDSFTRFDDPLFSLKRNRSQYEAGGYQRATDGLGARLRSELLPPDKDTPIVFNKKSLKDKIVDSVLVQLDKDFNTKDGDRGQKFEDIKKLVLEEYKKIDSELQVDEDTYHQPLNLDYLENIACTLDDNSTAKDWVYGIIGATTEADYWPKKESESGTEKVSVFYEKQKEIKFESDTNTMSIKVQYLLAEINFYCKTNKLSDANFGEFFDKEPHATEVAKRVKEGLVQGAEIEPIIYNYINSHHAELGLTSELSSKQQEEITEKFTQRYHIIENSPHFDEFFVADPDKKGNIFSHQGRMSCHFLDFFARQTKGKYPLGDLAGHQEALQAGTSNRLHHKNEVVAQGYEKFDQFKKEVVKLLAESKPKELLDYLVATSPTGVPNYSMLSKETQNYIAYNRNWPAIQKELEKTTDIPENQKQDLLRLLSRNNLQHENLSAITWSKYSSKPLLDVELNKIAEGLDLTAKIYNEKRKSEWFKGSRNEARKTQCEELQRVSQEINALLQSESLTKSQVLEKVLNSIEALDKIDRDISAEYNLFKSTLQKEVQSFRDQLKDICQLDNYAFKSTKLDEIISLEMEEQFQMIKDPAVQQIVRDLPSHCHNNEVIEFFMTLNPEEAAKVASYLSLEYRELNKSTDKKTLLEQDIPKLFKEVNMELLSQLKQDSAVKEDVYEKFCQLADKIPPEHFTRNNIRKWSANPEKLEESNLGELLKSSEGSITEMARKYRETINEMTGRNESLRETVRNTI
modifications: L. pneumophila
With B1 the “stability / PI(4)P-binding after cycles of shock freezing and thawing” value was “stable and robustly bind PI(4)P even after cycles of shock freezing and thawing”.
